Results taken from PubChem BioAssay AID1508642 (National Center for Advancing Translational Sciences (NCATS), 2021).
The whole screen tested about 43,000 compounds, of which about 200 (0.47%) were called active. About 12% were inconclusive and are not listed. The call rests on the fitted dose curve; in most records, active means well fitted cell-killing curve with a large enough effect; inconclusive means small, poorly fitted or top-dose-only effect, or effect the other way; inactive means flat fitted curve, though single readings scatter. Some of the results follow.

assay: Cell viability qHTS assay in S16 Pmp22-F2sN cells; details: S16 Pmp22-F2sN Schwann cells viability, CellTiter-Glo, 24 h; series mostly up to 57.5 µM; activity change, negative = cytotoxicity: at the top concentration; further: nearly all actives have a fitted effect of over 65% in size
Summary of the method: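 Viability was measured by CellTiter-Glo luminescence (15 min, room temperature). This followed 24 h at 37 °C of compound exposure (23 nL pin transfer) in S16 Pmp22-F2sN Schwann cells, 500-1,000 per well.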
On the % scale 0 is the no-effect control and ±100 the full control effect; potency means the concentration at half of the fitted maximal effect.

Compound	activity change, negative = cytotoxicity	Potency
CCc1nnc(SCC(=O)Nc2cc(OC)ccc2OC)nc1CC	inactive: -3.42%	–
CCN(Cc1ccccc1)C(=O)c1cc2c(=O)[nH]c3ccc(C)cc3c2s1	inactive: -0.51%	–
Cc1ccc(NC(=O)N2CCN(c3ccc(Cl)c(Cl)c3)CC2)cc1	inactive: -29.7%	–
Cc1nnc(NC(=O)CSc2nccn2Cc2ccc(Cl)cc2)s1	inactive: -0.357%	–
O=C(CSc1cn(CCNC(=O)c2c(F)cccc2F)c2ccccc12)Nc1ccc(F)cc1	inactive: 11.7%	–
COc1ccc2c(c1)c1c(c(=O)n(-c3ccccc3C)c(=O)n1C)n2C	inactive: 2.51%	–
CCN(CC)S(=O)(=O)c1cccc(C(=O)Nc2sc3c(c2C#N)CCC(C)C3)c1 (stereo not drawn)	inactive: -14%	–
Cc1cc(C)c(S(=O)(=O)N2CCC(N3CCN(Cc4ccccc4)C(=O)C3=O)CC2)c(C)c1	inactive: -8.31%	–
COc1ccc(-n2ncc(C(=O)N3CCN(c4cc(C)ccc4C)CC3)c2C2CCN(C(=O)OC(C)(C)C)CC2)cc1	inactive: 11.2%	–
CCN(CC)CCNC(=O)c1cn(CCOC)c(=O)c2c1c1ccccc1n2C	inactive: 0.305%	–
COc1ccc(CNCc2c(C(=O)O)c(C)n(Cc3ccccc3C)c2C)c(OC)c1	inactive: 3.32%	–
COc1ccc(Nc2cc(C)c3cc(NC(=O)Cc4ccc(Cl)cc4)ccc3n2)cc1	inactive: 18.6%	–
O=C(Nc1ccc(F)c(Cl)c1)N1CCC2(CC1)Oc1ccccc1C(=O)N2Cc1ccccc1F	inactive: 18.7%	–
Cc1nc2nc(NC(=O)CC(C)C)[nH]n2c(=O)c1Cc1ccccc1	inactive: -3.45%	–
CCc1ccccc1NC(=O)Cc1ccc(NC(=O)N2CCCCc3ccccc32)cc1	inactive: 14.9%	–
CCS(=O)(=O)c1ncc(Cl)c(C(=O)Nc2c(C(=O)Nc3cccc(C)c3)oc3ccccc23)n1	–	active: 2240 nM
Cc1ccc(-c2c(C(=O)N3CCN(c4cc(Cl)ccc4C)CC3)oc(=O)c3ccccc23)cc1	inactive: 21.9%	–
COc1ccc(C)cc1NC(=O)c1cc2c(=O)n(Cc3cccnc3)ccc2nc1C	inactive: -9.3%	–
Cc1cccc(CNC(=O)c2ccc3oc(=O)n(Cc4ccccc4)c3c2)c1	inactive: -21.3%	–
O=S(=O)(c1ccc(Br)cc1)c1nnn2c1nc(NCc1ccc3c(c1)OCO3)c1sccc12	inactive: 17.6%	–
CCCOc1ccc(CNC(=O)CCCn2nc(C)c3sc4ccccc4c3c2=O)cc1	inactive: 5.25%	–
Cc1ccc(CNC(=O)CCCCCn2c(=O)c3sccc3n(CC(=O)Nc3c(C)cc(C)cc3C)c2=O)cc1	inactive: 6.65%	–
COc1cc(Cl)c(C)cc1NC(=O)Cn1ncc2c1-c1cc(C)ccc1OC2	inactive: 5.92%	–
CCCSc1ncc(Cl)c(C(=O)Nc2c(C(=O)Nc3ccc(OC)cc3)oc3ccccc23)n1	inactive: 0.558%	–

Compound	activity change, negative = cytotoxicity	Potency
COc1ccc(C(=O)Nc2nnc(SCc3cc(=O)n4cccc(C)c4n3)s2)cc1	inactive: -3.59%	–
CCc1ccc(C(=O)N2CCC(c3nc(-c4ccc(S(=O)(=O)N5CCCC5)cc4)no3)CC2)cc1	inactive: -29.5%	–
O=C(O)c1ccc(CNCc2ccccc2Cl)s1	inactive: -0.208%	–
Cn1nc(C(=O)NCc2ccccc2Cl)c2c1-c1ccccc1S(=O)(=O)C2	inactive: -25.7%	–
CSc1ccc(CNC(=O)C2CCN(c3nc4ccccc4nc3C(F)(F)F)CC2)cc1	inactive: -2.73%	–
COc1ccc(Cl)cc1NC(=O)C1CCN(S(=O)(=O)c2ccc3c(c2)CC(C)N3C(C)=O)CC1 (stereo not drawn)	inactive: -2.56%	–
CC1CCCN(Cc2nc3c(c(=O)n(C)c(=O)n3C)n2Cc2ccc(Cl)cc2)C1 (stereo not drawn)	inactive: 4.25%	–
O=C(Nc1cc(Cl)ccc1Cl)c1cc2nc(-c3ccc4c(c3)OCO4)cc(C(F)(F)F)n2n1	inactive: 3.3%	–
COc1ccc(C(=O)NCc2ccc3c(c2)CCN3C(=O)c2ccc(C)cc2)cc1	inactive: 12.6%	–
COc1ccc(-c2c(C)nn3c(C(F)(F)F)cc(-c4ccccc4)nc23)cc1	inactive: 1.23%	–
COc1ccc(OC)c(NC(=O)c2cc(C3CC3)nc3c2c(C)nn3-c2ccc(C)cc2)c1	inactive: -17.8%	–
Cc1cc(C)cc(NC(=O)Cc2c(C(=O)O)c(C)cn2C)c1	inactive: 3.42%	–
O=C(Cn1cc(SCc2ccccc2F)c2ccccc21)N1CCCCC1	inactive: 14.5%	–
O=C(NCc1ccco1)c1ccc2c(c1)N(Cc1c(F)cccc1Cl)C(=O)c1ccccc1S2	inactive: -4.22%	–
CCc1cc2c(cc(C(=O)OC)n2Cc2nc(-c3ccc(C)cc3)oc2C)s1	inactive: -13.7%	–
O=C(CSc1nc2c([nH]c3ccccc32)c(=O)n1-c1cccc(C(F)(F)F)c1)N1CCc2ccccc21	inactive: 15.8%	–
CC(=O)c1cccc(NC(=O)C2CCN(S(=O)(=O)c3ccc4[nH]c(=O)ccc4c3)CC2)c1	inactive: 12.2%	–
Cc1ccc(CNC(=O)C2CCN(Cc3nc(-c4cccc(Br)c4)oc3C)CC2)cc1	inactive: 0.687%	–
CCOc1ccc(-n2c(=O)c3c4c(sc3n(CC(=O)NC(C)CC)c2=O)CCCC4)cc1 (stereo not drawn)	inactive: 7.81%	–
Cc1cccc(-n2c(=O)c3ccccc3n(Cc3ccccc3)c2=O)c1	inactive: 22.1%	–
Cc1ccc(-n2nc3ccc(NC(=O)COc4ccccc4)cc3n2)cc1Cl	inactive: -1.18%	–
CCC(C(=O)NC1CCC(C)CC1)n1nc(C)c2sc3ccccc3c2c1=O (stereo not drawn)	inactive: 5.46%	–
COc1ccccc1CNC(=O)C1CCN(S(=O)(=O)c2ccc3c(c2)CCCN3C(C)=O)CC1	inactive: 2.46%	–
CC(C)c1ccc(NC(=O)CSc2nc3ccccc3nc2Cc2ccccc2)cc1	inactive: 2%	–
